Experimental data reported in PubChem BioAssay AID1476 (National Center for Advancing Translational Sciences (NCATS), 2009).
The whole screen tested about 200,000 compounds, of which about 4,500 (2.2%) were called active. The inconclusive results got no clear call from the source; some entries with a clear call stand among them for comparison. Calls come from the whole dose curve; as a rule, active = well fitted inhibition curve with a large enough effect; inconclusive = small, poorly fitted or top-dose-only effect, or effect the other way; inactive = flat fitted curve, though single readings scatter. A potency beside an inconclusive call is a rough fit, not a confirmed value.

target: Cruzipain (Trypanosoma cruzi) (UniProt P25779); assay: qHTS Assay for Promiscuous and Specific Inhibitors of Cruzain (without detergent); settings: purified cruzain, Z-FR-AMC fluorescence, no detergent; note: nearly all actives have a fitted effect of over 40% in size;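 for max response, negative = inhibition: plate controls were enzyme without inhibitor for no effect and buffer without enzyme for full effect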
Chain of UniProt P25779 (P25779 whole entry, looked up): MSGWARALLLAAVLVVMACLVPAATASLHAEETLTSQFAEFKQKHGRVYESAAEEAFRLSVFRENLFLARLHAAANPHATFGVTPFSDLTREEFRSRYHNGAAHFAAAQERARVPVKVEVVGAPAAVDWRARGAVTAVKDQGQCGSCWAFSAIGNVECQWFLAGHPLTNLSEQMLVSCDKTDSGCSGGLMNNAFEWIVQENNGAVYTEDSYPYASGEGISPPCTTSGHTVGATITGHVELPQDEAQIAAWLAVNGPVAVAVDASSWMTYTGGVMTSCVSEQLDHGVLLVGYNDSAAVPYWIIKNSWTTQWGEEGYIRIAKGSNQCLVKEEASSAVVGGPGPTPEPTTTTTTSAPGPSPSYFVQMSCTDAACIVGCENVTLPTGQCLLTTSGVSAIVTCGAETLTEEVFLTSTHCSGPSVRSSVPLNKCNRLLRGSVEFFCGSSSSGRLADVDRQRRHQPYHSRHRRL
Summary of the method: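 Detergent-free condition (0.00005% Triton X-100) in acetate buffer pH 5.5 with DTT. 1.5 nM enzyme and compound were pre-mixed 15 min, then 2 uM Z-FR-AMC substrate added; reaction progress from fluorescence change between first and third reads (60 s).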
Potency is the fitted concentration of half-maximal effect; tags give direction and shape of the fitted curve.

| SMILES | max response, negative = inhibition | Potency |
| --- | --- | --- |
| COc1ccc2c(C)c(CCC(=O)NCCc3ccccc3)c(=O)oc2c1 | inactive: -3.93% | – |
| OC(CNCC1CCCO1)Cn1c2ccc(Br)cc2c2cc(Br)ccc21 (stereo not drawn) | – | inconclusive: 39.8 µM [inhibitor, single point] |
| CCOc1cc(N2CCOCC2)c(OCC)cc1NC(=O)c1nc2nc(C)cc(C)n2n1 | – | inconclusive: 39.8 µM [activator, single point] |
| CC(/C=C/c1ccc(N(C)C)cc1)=N/N=C1/NC(=O)CC(C(=O)Nc2ccc(Cl)cc2)S1 (stereo not drawn) | – | inconclusive: 31.6 µM [inhibitor, single point] |
| COc1ccc(CNC(=O)Cn2c(=O)c3cccn3c3cccnc32)cc1 | inactive: -15.6% | – |
| O=C(NCc1cccs1)c1cc(-c2cccc(Cl)c2)on1 | – | inconclusive: 39.8 µM [inhibitor, single point] |
| COc1ccc(NC(=O)c2cc(Cl)ccc2NC(=O)c2ccco2)c(OC)c1 | – | inconclusive: 39.8 µM [activator, single point] |
| O=C(CSc1nc2ccccc2s1)N1c2ccccc2Sc2ccc(Cl)cc21 | – | active: 15.8 µM |
| COCCn1c(C)cc(C(=O)COC(=O)CCc2ccc(S(=O)(=O)N3CCOCC3)cc2)c1C | – | inconclusive: 31.6 µM [activator, single point] |
| CS(=O)c1nc(-c2ccc(Br)cc2)cc(-c2ccccc2)c1C#N (stereo not drawn) | – | inconclusive: 31.6 µM [inhibitor, single point] |
| Cc1cc(/C=C2\SC(N)=NC2=O)c(C)n1-c1ccccc1 | – | inconclusive: 39.8 µM [inhibitor, single point] |
| COc1ccc(S(=O)(=O)Cc2ccc(C(=O)N3CCN(c4ccc(Cl)cc4)CC3)o2)cc1 | – | inconclusive: 39.8 µM [activator, single point] |
| COC(=O)c1cc(NC(=O)C2(S(=O)(=O)c3ccc(C)cc3)CC2)cc(C(=O)OC)c1 | – | inconclusive: 39.8 µM [activator, single point] |
| CCOC(=O)N1CC=C2C(C#N)=C(N)C(C#N)(C#N)[C@H](c3ccc(OC(C)C)c(OCC)c3)[C@H]2C1 | – | inconclusive: 39.8 µM [activator, single point] |
| CCOC(=O)Cn1nnnc1CN(Cc1ccc(OC)cc1)Cc1cc2cc(C)ccc2[nH]c1=O | – | inconclusive: 39.8 µM [activator, single point] |
| O=C1OC(/C=C/c2ccc(Cl)cc2)=NC/1=C/c1ccco1 | – | active: 15.8 µM |
| O=C(Cn1c(=O)n(Cc2ccco2)c(=O)c2c3c(sc21)CCCCC3)c1ccccc1 | – | active: 25.1 µM |
| Cc1c(C(=O)N2CCc3ccccc3C2)oc2ccc(S(=O)(=O)N3CC(C)CC(C)C3)cc12 (stereo not drawn) | – | inconclusive: 39.8 µM [inhibitor, single point] |
| C/C(=N\NC(=O)c1ccccc1)c1ccc(N2CCCCC2)cc1 | – | inconclusive: 31.6 µM [inhibitor, single point] |

| SMILES | max response, negative = inhibition | Potency |
| --- | --- | --- |
| Cc1[nH]c2ccc(C(=O)N3CCN(c4ccccc4F)CC3)cc2c1C | inactive: -15.8% | – |
| CCOc1cc(C(c2c(C)[nH]n(-c3ccccc3)c2=O)c2c(C)[nH]n(-c3ccccc3)c2=O)ccc1O | – | inconclusive: 31.6 µM [activator, single point] |
| COc1ccc(CCNC(=O)c2cnn(-c3ccc(F)cc3)c2C2CCN(C(=O)OC(C)(C)C)CC2)cc1OC | – | inconclusive: 39.8 µM [activator, single point] |
| CCc1ccc(NC(=O)CSc2nc3nc(C)cc(C)n3n2)cc1 | inactive: 3.86% | – |
| COc1ccc2c(c1)O[C@H](c1ccc3c(c1)OCO3)[C@@H](OC(=O)N[C@H]1CCCc3ccccc31)C2=O | – | inconclusive: 39.8 µM [inhibitor, single point] |
| CCN(CC)c1ccc(NC(=O)c2c(C)nn(-c3ccc(F)cc3)c2-n2cccc2)c(C)c1 | inactive: -11.9% | – |
| Clc1ccc(-c2csc(N3CCc4ccccc4C3)n2)cc1 | – | inconclusive: 31.6 µM [inhibitor, single point] |
| O=C(CSc1nnc(-c2ccccn2)n1Cc1ccco1)c1ccc(-c2ccccc2)cc1 | – | inconclusive: 25.1 µM [inhibitor, partial curve, poor fit] |
| COc1cc(OC)cc(C(=O)NC(=S)Nc2ccc(Cl)c(C(=O)O)c2)c1 | inactive: -1.96% | – |
| Clc1nc2ccccc2cc1/C=N/Nc1nc2ccccc2[nH]1 | – | inconclusive: 31.6 µM [inhibitor, single point] |
| O=C(CCc1ccccc1)c1ccc2c(c1)OCCCO2 | – | inconclusive: 3.16 µM [inhibitor, partial curve] |
| COc1cccc(CN2C(=O)c3ccccc3Sc3ccc(C(=O)NCc4ccccc4)cc32)c1 | – | inconclusive: 39.8 µM [inhibitor, single point] |
| COc1cccc(N2CCN(C(=O)c3cnc4c(-c5ccccc5)c(C)nn4c3C)CC2)c1 | – | inconclusive: 39.8 µM [activator, single point] |
| O=C(CSc1ccc(Cl)cc1)Nc1ccc(N2CCN(C(=O)c3ccco3)CC2)cc1 | inactive: -10.1% | – |
| CCOC(=O)c1scc(-c2ccccc2)c1S(=O)(=O)N1CCN(c2ccc(Cl)cc2)CC1 | – | inconclusive: 25.1 µM [inhibitor, partial curve] |
| CCc1ccc(NC(=O)CSc2nc3c([nH]c4ccccc43)c(=O)n2-c2ccc(C)cc2)cc1 | – | inconclusive: 2.51 µM [inhibitor, partial curve, poor fit] |
| Cc1ccc(Sc2ccc(N3CCC(C(=O)Nc4cc(C)cc(C)c4)CC3)nn2)cc1 | inactive: 0.333% | – |
| CC(=O)O[C@H]1C(=O)[C@@]2(C)C([C@H](OC(=O)c3ccccc3)[C@]3(O)C[C@H](OC(=O)[C@H](O)[C@@H](NC(=O)c4ccccc4)c4ccccc4)C(C)=C1C3(C)C)[C@]1(OC(C)=O)CO[C@@H]1C[C@@H]2O (stereo partly drawn) | – | inconclusive: 5.01 µM [activator, full curve] |
| O=C(NCc1ccccc1)c1ccc2c(c1)N(Cc1ccccc1F)C(=O)c1ccccc1S2=O (stereo not drawn) | – | inconclusive: 25.1 µM [inhibitor, single point] |
